Molecular target: T1, androgen receptor (AR) (Homo sapiens, UniProt P10275, T878A)
T1 construct: LNCaP cells were transfected with lentivirus (Qiagen); endogenous in cells
T1 sequence (P10275 1-920 T878A): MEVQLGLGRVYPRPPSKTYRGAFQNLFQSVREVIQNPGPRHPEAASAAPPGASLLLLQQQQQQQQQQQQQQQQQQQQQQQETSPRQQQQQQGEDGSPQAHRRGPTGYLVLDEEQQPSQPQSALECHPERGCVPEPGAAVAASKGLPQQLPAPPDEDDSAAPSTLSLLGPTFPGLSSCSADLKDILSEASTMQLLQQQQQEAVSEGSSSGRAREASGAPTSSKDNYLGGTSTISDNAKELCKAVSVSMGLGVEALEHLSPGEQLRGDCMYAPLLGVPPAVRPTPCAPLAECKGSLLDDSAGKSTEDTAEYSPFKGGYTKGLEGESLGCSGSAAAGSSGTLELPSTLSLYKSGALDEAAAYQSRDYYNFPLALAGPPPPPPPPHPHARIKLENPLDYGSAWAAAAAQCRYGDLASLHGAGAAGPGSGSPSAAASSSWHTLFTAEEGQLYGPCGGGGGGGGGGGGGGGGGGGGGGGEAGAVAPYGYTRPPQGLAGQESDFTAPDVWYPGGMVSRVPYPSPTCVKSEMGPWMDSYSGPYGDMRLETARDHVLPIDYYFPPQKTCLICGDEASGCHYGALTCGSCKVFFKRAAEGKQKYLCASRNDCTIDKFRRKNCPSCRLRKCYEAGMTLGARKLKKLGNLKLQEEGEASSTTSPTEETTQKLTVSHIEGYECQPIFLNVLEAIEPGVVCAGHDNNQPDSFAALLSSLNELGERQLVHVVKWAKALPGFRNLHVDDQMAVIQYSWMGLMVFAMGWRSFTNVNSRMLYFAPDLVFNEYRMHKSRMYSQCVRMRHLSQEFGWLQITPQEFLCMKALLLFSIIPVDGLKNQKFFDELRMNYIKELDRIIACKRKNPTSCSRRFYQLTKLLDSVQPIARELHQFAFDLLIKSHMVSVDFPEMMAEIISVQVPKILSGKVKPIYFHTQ
Assay: Androgen receptor luciferase reporter assay in AR.Luc LNCaP cells (no hCACNG1)
Type: cell-based
Conditions: 24 hour incubation

B1: REGN14573: 10713 variable regions, hIgG1 N180Q; tested conjugated via VC-PAB linker to DHT (M3004) (conjugate)
heavy chain: EVQLVESGGNLVQPGGSLRLSCAASGFTFTSHAMNWVRQAPGKGLEWVSVITGRGFDTHYADSVKGRFTISRDISKNTLYLQMNSLRAEDTAVYYCAKGLYDSGNYYIDYWGQGTLVTVSS[sequence of human IgG1 constant region with changes omitted]
light chain: QSVLTQPPSVSAAPGQKVTISCSGSSSNIGNNYVSWYQQLPGTAPKLLIYDNNKRPSGIPDRFSGSKSGTSATLGITGLQTGDEADYYCGTWDLSLSFNWVFGGGTKLTVLGQPKAAPSVTLFPPSSEELQANKATLVCLISDFYPGAVTVAWKADSSPVKAGVETTTPSKQSNNKYAASSYLSLTPEQWKSHRSYSCQVTHEGSTVEKTVAPTECS
- androgen receptor activation (RLU): none of the CACNG1 antibodies conjugated to DHT showed any appreciable activation

— patent publication US20260234660A1, “TREATMENT OF MUSCLE RELATED DISORDERS WITH ANTI-HUMAN CACNG1 ANTIBODIES” (Regeneron Pharmaceuticals, Inc., priority 2023, published 2026)
